The results in this text go back to PMC4336329 (PLoS ONE, 2015).

In all, about 310,000 compounds went through this assay and about 2,200 (0.71%) showed an effect of 50% or more. The effect is printed as a negative number. The list shows a part of the results.

Chain of human ether-à-go-go-related gene (hERG) potassium channel (Q12809 whole entry, looked up): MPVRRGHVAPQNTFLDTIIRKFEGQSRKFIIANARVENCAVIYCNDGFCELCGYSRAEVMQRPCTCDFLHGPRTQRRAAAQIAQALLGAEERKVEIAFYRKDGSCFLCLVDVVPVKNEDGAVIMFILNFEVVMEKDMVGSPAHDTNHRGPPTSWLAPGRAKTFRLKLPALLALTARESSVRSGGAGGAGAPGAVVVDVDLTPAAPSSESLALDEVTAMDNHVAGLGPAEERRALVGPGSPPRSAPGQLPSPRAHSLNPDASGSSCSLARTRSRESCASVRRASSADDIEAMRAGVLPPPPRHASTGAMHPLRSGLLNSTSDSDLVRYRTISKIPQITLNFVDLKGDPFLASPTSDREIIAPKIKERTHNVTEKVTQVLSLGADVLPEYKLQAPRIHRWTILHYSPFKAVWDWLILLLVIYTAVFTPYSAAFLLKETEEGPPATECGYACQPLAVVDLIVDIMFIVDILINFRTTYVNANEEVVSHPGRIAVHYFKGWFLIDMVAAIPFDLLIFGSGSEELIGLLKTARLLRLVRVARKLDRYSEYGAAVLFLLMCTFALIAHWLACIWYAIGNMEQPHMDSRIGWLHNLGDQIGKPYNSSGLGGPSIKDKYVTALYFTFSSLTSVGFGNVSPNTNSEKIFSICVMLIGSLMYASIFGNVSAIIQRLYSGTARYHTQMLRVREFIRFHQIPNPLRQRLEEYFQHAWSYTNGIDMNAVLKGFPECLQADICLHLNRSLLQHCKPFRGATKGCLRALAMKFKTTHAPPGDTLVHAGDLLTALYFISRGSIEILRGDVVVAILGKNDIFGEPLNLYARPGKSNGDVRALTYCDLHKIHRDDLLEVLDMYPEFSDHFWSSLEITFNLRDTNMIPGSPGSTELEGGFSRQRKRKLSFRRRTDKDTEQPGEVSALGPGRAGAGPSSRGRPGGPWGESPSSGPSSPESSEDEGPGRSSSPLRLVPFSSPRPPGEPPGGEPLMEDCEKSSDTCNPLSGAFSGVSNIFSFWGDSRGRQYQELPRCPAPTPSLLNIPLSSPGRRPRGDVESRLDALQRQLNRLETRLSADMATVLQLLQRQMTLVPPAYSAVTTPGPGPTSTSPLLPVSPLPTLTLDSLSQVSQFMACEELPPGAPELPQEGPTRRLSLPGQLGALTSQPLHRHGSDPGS

This test addresses human ether-à-go-go-related gene (hERG) potassium channel (human, UniProt Q12809). The experiment in a line: primary screen, population patch clamp on CHO cells stably expressing hERG.
For `Cc1ccc(S(=O)(=O)N2CCN(CC(=O)N/N=C/c3ccco3)CC2)cc1`, the “hERG current change (%, negative = inhibition) at 1uM” value is given as -3.37%.

For `Cc1cccc(OCCCOc2cccc3cccnc23)c1C`, the “hERG current change (%, negative = inhibition) at 1uM” value is 11.2%. With `O=C(CSc1ncn[nH]1)Nc1ccc(S(=O)(=O)N2CCCC2)cc1`, the “hERG current change (%, negative = inhibition) at 1uM” value came out at 14.9%.

Regarding `N/C(=N\N=C\c1ccc2c(c1)OCO2)c1nonc1N`, the “hERG current change (%, negative = inhibition) at 1uM” value is on record as 10%. Next, `Cc1ccc(C(=O)Oc2oc(-c3ccco3)nc2C=Nc2ccc(Cl)cc2)cc1`: 7.08%. Under `CCOc1ccc(-c2nc(CSCC(=O)N3CCN(c4cccc(OC)c4)CC3)c(C)o2)cc1` stands 6.52%; under `COc1ccc(S(=O)(=O)N2CCN(c3ccc4nnc(-c5ccccc5)n4n3)CC2)cc1`, -47.8%. Under `O=C1c2ccccc2C(=O)N1/N=C/c1ccc(Oc2ccc([N+](=O)[O-])cn2)cc1` stands -12.4%.

Take `COc1ccc(-c2nn(-c3ccccc3)cc2/C=C(/C#N)C(N)=O)cc1[N+](=O)[O-]`: the “hERG current change (%, negative = inhibition) at 1uM” value is listed as 5.42%. Regarding `CC(C)CNC(=O)COC(=O)/C=C/c1ccco1`, the “hERG current change (%, negative = inhibition) at 1uM” value is 6.36%. Next, `CCOC(=O)C1(CCc2ccccc2)CCN(Cc2cccc3cnccc23)CC1`: -4.67%; `[Cl-].[NH3+][C@@H](Cc1ccccc1)C(=O)N1CCOCC1`: 15.1%.

`CCOC(=O)C1=C(c2ccccc2)NC(=O)NC1c1cc(OCC)c(O)c([N+](=O)[O-])c1` (stereo not drawn): the “hERG current change (%, negative = inhibition) at 1uM” value was 18%. Consider `O=C(NC1CCN(Cc2ccccc2)CC1)c1ccc(S(=O)(=O)NCc2ccco2)cc1`, for which the “hERG current change (%, negative = inhibition) at 1uM” value is 4.96%. Under `O=C1c2ccccc2C(=O)N1CC(O)COc1ccc(Br)cc1` (stereo not drawn) stands 10.6%; under `CC(=O)Nc1ccc(N2C(=O)C3C4C=CC(CC4)C3C2=O)cc1` (stereo not drawn), 2.85%; under `Cc1cccc(NC(=S)N2CCN(C(=O)c3ccco3)CC2)c1`, 5.07%.

Take `CCOC(=O)c1c(NC(=O)c2cccnc2)sc(C(C)=O)c1C`: the “hERG current change (%, negative = inhibition) at 1uM” value is on record as 6.21%. Next, `CC1=C(C(=O)NCc2ccccc2)C(c2ccccc2OCC(N)=O)NC(=O)N1` (stereo not drawn): 1.35%; `CC(C)C(c1nnnn1Cc1ccc2c(c1)OCO2)N1CCN(c2ccccc2)CC1` (stereo not drawn): 19.2%; `CCO[C@@H]1OC(C(=O)O)=C[C@H](C2CCCCC2)[C@H]1CCCO`: 10.6%. Under `O=C(COc1ccc(Cl)c2cccnc12)N1CCOCC1` stands 11.2%; under `Cc1cc(C(=O)Nc2ccc(Cl)cc2)c(C)n1Cc1cccs1`, 10.2%. Under `O=C(COC(=O)CN1C(=O)c2ccccc2C1=O)Nc1ncc(Cl)cc1Cl` stands 3.24%.
